Test results taken from the supplement of paper PMC10126150.
Sequences with one replicate were seen in a single cluster, so their values are uncertain.

Tested on: ATP
Test: switch fluorescence ratio, 500 uM ATP over buffer (Cy3 cluster intensity, sum of 5 cycles each) (fold (ratio)); higher = stronger signal-on switching upon ATP binding; sequences stand for … in TCGTCGGCAGCGTCAGATGTGTATAAGAGACAGTTTTTTTTTTTTTTTTTTTTTTTTT…TC
Conditions: aptamer strand: ATP DNA aptamer (quencher-CACCTGGGGGAGTATTGCGGAGGAAGG + anchor), 100 nM annealed; ATP concentration: 500 uM; one replicate
Summary of the method: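 The quencher-labelled ATP aptamer, at 100 nM, was annealed to Cy3-labelled switching-strand clusters on a modified Illumina MiSeq flow-cell. The clusters were imaged in selection buffer, then after 15 min with 500 uM ATP at 22 °C, and this buffer/ATP cycle ran five times with NaOH stripping and re-annealing between runs. Per-cluster fluorescence ratios, summed target-cycle over summed buffer-cycle Cy3 intensity, were averaged per switch-domain sequence. Clusters outside 100-1000 RFU were excluded.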
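Further: ATP exposure 15 min at 22 °C before imaging.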

| Sequence | switch fluorescence ratio |
| --- | --- |
| GGGTACAAGT | 0.971 |
| ATTACCTCGG | 1 |
| ATAGCGGCCG | 1.04 |
| AACGATGTA | 0.966 |
| TGGCCTAAC | 1.06 |
| CGATCTCAG | 1.03 |
| ACTTTCCCGT | 1.15 |
| GGCAGAATTG | 1 |
| TTAATGGGTC | 0.97 |
| GGTGTCGCGA | 0.969 |
| CGCCGAGTGG | 1.06 |
| TAATAACGAG | 1.02 |
| ACGTCAGGCT | 1.02 |
| CCTCGGTCTA | 2.43 |
| CCCAGGAATT | 1.06 |
| AGGCGCAGAC | 1.05 |
| TTGGGAGTAT | 0.977 |
| CACCACGGGT | 1.04 |
| GCTCCCTGGA | 1.02 |
| AAGCTTGTTA | 0.981 |
| AGGCTCCCAC | 1.18 |
| GATGGGTCGC | 0.971 |
| CCGCTATAAA | 6.09 |
| GCGCCTTCGC | 1.03 |
| GTCGTAAATT | 0.98 |

| Sequence | switch fluorescence ratio |
| --- | --- |
| GGTTGCGACT | 1.02 |
| CCCCATAGAC | 2.06 |
| TCTGTCAGAT | 1.03 |
| CGGATGAGCC | 0.999 |
| AATTCGGATT | 0.991 |
| AACCGCAGAT | 1.43 |
| CAAGGCCTTA | 1.02 |
| TTTAAAAACT | 0.974 |
| ATGTGATTGA | 0.984 |
| TCAATGAAGG | 0.97 |
| GTAAGTACAT | 1.26 |
| TCCGCTGGGG | 1.97 |
| TAGTACAGAG | 1.03 |
| AAATATCGCG | 0.988 |
| TAGGGCGCTA | 1.01 |
| TATGTCCCGG | 1.05 |
| GCTGTTGG | 0.996 |
| ACGTTATCTA | 1.14 |
| CTAGTCAATT | 1.01 |
| GAATCAAACA | 0.99 |
| CCTAAGCAAG | 2.94 |
| GTTGGAGTCG | 1.05 |
| CTGAGATGAT | 0.989 |
| GAAGGTAGTA | 0.995 |
| GTCAAGATGG | 0.988 |

| Sequence | switch fluorescence ratio |
| --- | --- |
| ACTATCCGAG | 1.11 |
| CCCTCATGAG | 1.04 |
| ACGAGCTCAG | 1.23 |
| ATCGATTGTG | 1.08 |
| ATAAAGCTCG | 1.02 |
| AGCTGGTGTC | 1.05 |
| GGGGTATTAA | 1.02 |
| TGTCGGGGCA | 0.958 |
| CAGCTTATCC | 1.09 |
| CTGAGTAGTC | 1.01 |
| TCTAACCTTT | 1.11 |
| TGGCTACCTC | 1.06 |
| GCAGCTGTCA | 0.97 |
| GTGCTTAAGT | 0.991 |
| AAGTTAGTGT | 1.01 |
| TGATGCTTTC | 1.08 |
| TGGGTGTGAC | 0.981 |
| AATCGGTCAA | 1.05 |
| AGCTGGGGAT | 1.01 |
| CAGTTACCTC | 1.07 |
| TGAGGCATGA | 1.08 |
| ATTCTTCTGC | 0.967 |
| GCTATAGGCG | 1.02 |
| TGCAGGGGCA | 1.03 |
| CATCATGCCC | 1.15 |

| Sequence | switch fluorescence ratio |
| --- | --- |
| GCTCATGAGG | 0.96 |
| GCACTGAGTC | 1.04 |
| AGATCCTACA | 0.964 |
| TACCGCCGAG | 1.12 |
| TATGAGCGGA | 0.952 |
| AGAATAGACA | 1.01 |
| ATCACGAAGC | 1.08 |
| AATTGGCTAA | 1.02 |
| ATTATTCCGT | 1.01 |
| CACATGGGTT | 1.02 |
| TGCAACCTAA | 0.995 |
| GCTTAACTGG | 0.97 |
| CGCTTGTTCT | 1 |
| CTCGGCGAAG | 1.07 |
| CCTGTCGCCG | 1.01 |
| GCATTACGAT | 2.22 |
| GGTGTGCCGC | 0.803 |
| GGCGCACAGC | 1.03 |
| AAGGGGCAC | 0.991 |
| GAACATGCCT | 1.08 |
| AACGCAGACA | 1.26 |
| GGAAATGGTT | 1.02 |
| CTATGGCGAG | 1.02 |
| GGAGTCTTTA | 1 |
| GGATAACGGT | 1.01 |

| Sequence | switch fluorescence ratio |
| --- | --- |
| AGTACTCGTG | 1 |
| ATTCAAAGCT | 1.09 |
| GCGCGGCACC | 1.08 |
| TTTCTTGTAC | 1.31 |
| TTTCGTAT | 1 |
| CTCTCTAGC | 1.15 |
| GACGATAATA | 1.29 |
| TTAGTCAACT | 1.05 |
| ATTATCGCTA | 1.04 |
| CATTCTAGGG | 0.999 |
| TGCTGGGACC | 1.01 |
| CCAATAGGTG | 2.95 |
| ACCATTATC | 1.06 |
| CAACCATAGC | 1.08 |
| TTTAGAATAA | 1.01 |
| CGTATGATCA | 1.01 |
| CGGGTAACCA | 1.05 |
| TAGGTGTTCA | 1.05 |
| TGCAGCACC | 1.2 |
| AAACCTAAAT | 1.07 |
| CCAAAATCCT | 1.85 |
| ATTCGGAGAC | 1.36 |
| TGTGTCTGAG | 0.998 |
| TGGCGACGAT | 1.01 |
| CAGGGGACGG | 1.06 |

| Sequence | switch fluorescence ratio |
| --- | --- |
| AGATGCCGAG | 1.04 |
| CCCCTGAGTT | 1.07 |
| AAAGTGGCCG | 0.965 |
| CCTAAGTAGT | 1.03 |
| ACTGCTCTCG | 1.07 |
| AAGAGACGGT | 1.01 |
| TACGACTCGA | 1.12 |
| CTGTCATCTA | 1.01 |
| CTTCATCAAG | 1.09 |
| CTTGCCCGAT | 1.02 |
| TGATCGTGAC | 1.05 |
| TAATTCCATT | 0.972 |
| AAAATCGCAG | 1.06 |
| GTATATCAAT | 0.989 |
| TCAAGTTGTG | 0.943 |
| GCCGGGATAA | 1.24 |
| TCCTGACTTG | 1.05 |
| CGTCGTGATC | 1.07 |
| TTATTACCTC | 0.99 |
| GGGTGCTGTC | 0.989 |
| TAGTTATCTT | 1.04 |
| AAGCGGCACG | 0.989 |
| TATCGGTTTA | 0.991 |
| CTGGATTTCT | 0.977 |
| ATATTGTTCG | 0.962 |

| Sequence | switch fluorescence ratio |
| --- | --- |
| AGTGAGAGAA | 1 |
| TTACAGGACT | 1.05 |
| GACGTTTGAG | 0.981 |
| CGTGAAAATG | 0.972 |
| CTCGCCCTGG | 4.15 |
| CTCGCCTACG | 1.19 |
| CTTGCCCTTT | 0.981 |
| TTCAATTGCG | 1.02 |
| GATGGTTGGC | 0.989 |
| CGTAGTGAAC | 1.81 |
| TGCTATGCAT | 1.09 |
| CAATAAGTTG | 1.09 |
| GAGGCGGTGC | 1.42 |
| ACGGCCGATT | 1.03 |
| TTCGCCAGGT | 1 |
| GGAGGGCTTC | 0.955 |
| ACCTCGGACG | 1.07 |
| CGGATAACTC | 1.11 |
| ACGGAGACCC | 1.09 |
| GCTTGGCACT | 0.987 |
| GTGGTTTACT | 0.993 |
| ATCATTGTTG | 1.01 |
| TGATAATAAA | 0.995 |
| GTAGGAATTG | 1.04 |
| GGGACAACGT | 0.987 |

| Sequence | switch fluorescence ratio |
| --- | --- |
| CGTTCCGCTG | 1.29 |
| AAGACAGTCA | 1.04 |
| GTTAATGTCT | 0.946 |
| AACCAGGAAT | 1.14 |
| TGTGCGTATT | 1.01 |
| CGACTGGGGA | 1.14 |
| GGCGTTCTGA | 0.93 |
| TGTTTGATAA | 0.97 |
| ACGTAGCGGA | 1.65 |
| GTGTAAAATG | 0.972 |
| ATTTTGGCGG | 1.06 |
| TAGCTTGCGG | 0.98 |
| TTCGGGTGT | 1.14 |
| CCTTAGCTTG | 1.16 |
| AGGTAGTGCA | 1.01 |
| GTCCTTTGCT | 0.988 |
| ACGAATATAG | 1.01 |
| CTTGTCCGAC | 1.1 |
| GTAGCCGAAA | 1.03 |
| TTGATGTGAG | 1 |
| CATGACGGGA | 1.06 |
| TGGTTGACTC | 1.03 |
| GCAACGGCGT | 1.06 |
| CGAGGTATGA | 1.04 |
| GCTCTCGATG | 1.03 |
